PubChem BioAssay AID463173 (ICCB-Longwood Screening Facility, Harvard Medical School, 2010)
Hit rate of the full screen: of about 52,000 compounds, about 4,300 (8.3%) were called active. No stated cut-off is given here; in the data, active means survival mostly below about 52% (no sharp cut-off); inactive means mostly above about 56%. Some of the results follow.

Test system: DeltatarO mutant
Assay: S. aureus survival, RN4220 and DeltatarO strains – OD600, teichoic acid synthesis inhibitors, primary screen (AID 463173)
Conditions: S. aureus RN4220 wild type/DeltatarO growth, OD600, 18 h, hits give low values, screened at 18.75 µg/mL (by protocol)

Structure (SMILES)	survival
O=C(CSc1n[nH]c(-c2ccccc2)n1)N1CCN(c2ccc(F)cc2)CC1	inactive: 65%
Cc1noc(Cn2c(=O)c3ccccc3n(CC(=O)Nc3cc(Cl)ccc3C)c2=O)n1	inactive: 94%
CCOC(=O)c1[nH]c2ccccc2c1NC(=O)c1ccc(C)c(C)c1	inactive: 65%
O=C(CCn1cnc2onc(-c3ccc(F)cc3)c2c1=O)Nc1cccc(C(F)(F)F)c1	inactive: 96%
Cc1ccc(-c2nnc(Nc3ccc(OCC(N)=O)cc3)c3ccccc23)cc1S(=O)(=O)NCC1CCCO1 (stereo not drawn)	inactive: 149%
CCc1ccccc1NC(=O)Cn1c(=O)n(C(C)C)c(=O)c2oc3ccccc3c21	inactive: 66%
CCOc1ccccc1NC(=O)Cn1c(=O)nc(-c2ccccc2F)c2cc(Cl)ccc21	inactive: 84%
COc1ccccc1NC(=O)c1cc2c(-c3ccccc3)nn(-c3ccccc3)c2s1	inactive: 89%
COc1ccc(OCc2nc3ccccc3n2Cc2ccc(C(C)(C)C)cc2)cc1	active: -9%
CCN(CC)C(=O)Cn1c(SCC(=O)Nc2ccc(F)cc2)nc2ccccc21	inactive: 100%
COc1cccc(NC(=O)C(C)n2c(=O)cc(C(F)(F)F)c3c(C)nn(C)c32)c1 (stereo not drawn)	inactive: 83%
O=C(NCc1cccc(Br)c1)C1CCCCN1S(=O)(=O)c1ccc(F)cc1 (stereo not drawn)	inactive: 89%
CCCNC(=O)CN1C(=O)COc2ccc(S(=O)(=O)N3CCCCCC3)cc21	inactive: 80%
CC1CCN(S(=O)(=O)c2ccc3c(c2)N(C)C(=O)CC(=O)N3C)CC1	inactive: 60%
CCc1ccc(CNC(=O)CN2C(=O)C3CCCCN3c3ccc(C(=O)N4CCCC4)cc32)cc1 (stereo not drawn)	inactive: 75%
CC(C)Oc1ccc(CNC(=O)C(C)n2ccc3cc(S(=O)(=O)N4CCCCCC4)ccc32)cc1 (stereo not drawn)	inactive: 95%
O=C(Nc1ccccc1C(=O)N1CCCCC1)c1nsc2ccccc12	inactive: 134%
CNC(=O)c1cnc2sc(N3CCC(C)CC3)nn2c1=O	inactive: 78%
CCCCOc1cccc(C2c3c(-c4cc(C)ccc4O)n[nH]c3C(=O)N2CCOC)c1 (stereo not drawn)	active: 10%
CCCCCOc1ccc(/C=C/C(=O)Nc2sc3c(c2C(=O)OCC)CCC3)cc1OC	inactive: 66%
CCc1ccc(NC(=O)c2cc(=O)c3ccc(C)c(C)c3o2)cc1	inactive: 91%
COc1ccc(NC(=O)CNC(=O)Cn2ccc3ccccc3c2=O)cc1OC	inactive: 89%

Structure (SMILES)	survival
COC(=O)CN1C(=O)CSc2ccc(S(=O)(=O)Nc3ccc(C)c(Cl)c3)cc21	inactive: 70%
O=C(Cc1ccc(-c2ccccc2)cc1)NCCS(=O)(=O)N1CCN(c2ccccc2F)CC1	inactive: 85%
COc1cccc(NC(=O)C2CCCN(c3ncnc4onc(C)c34)C2)c1 (stereo not drawn)	inactive: 87%
CCc1nnc(NC(=O)C2CCCO2)s1 (stereo not drawn)	inactive: 98%
COc1cccc(C(=O)Nc2ccc3nc(SCCOc4ccccc4)sc3c2)c1	inactive: 75%
CCOC(=O)c1[nH]c(C)c(CN(C(C)=O)c2ccc(OCC)cc2)c1C	inactive: 83%
O=C(CCNS(=O)(=O)c1ccc2c(c1)CCN2C(=O)C1CC1)Nc1ccc(OC(F)(F)F)cc1	inactive: 91%
CCC(C)NC(=O)Cn1ccc2cc(S(=O)(=O)N3CCCCCC3)ccc21 (stereo not drawn)	inactive: 118%
CCc1ccc2oc(-c3cc(NC(=O)c4cccs4)ccc3Cl)nc2c1	active: 19%
O=C(Nc1ccc(F)c(F)c1)c1cc(S(=O)(=O)NC2CCCC2)ccc1F	inactive: 118%
Cc1cccc(N2CCN(CCCNc3ncnc4onc(-c5ccc(F)cc5)c34)CC2C)c1 (stereo not drawn)	inactive: 79%
Nc1nnc(CCCCn2c(-c3nonc3N)nc3ccccc32)s1	inactive: 69%
CCn1cc(S(=O)(=O)c2ccccc2)c(=O)c2cc(F)c(F)cc21	inactive: 92%
Cc1ccc(CN(C(=O)COc2ccc(F)cc2)C2CCS(=O)(=O)C2)o1 (stereo not drawn)	inactive: 95%
O=C(NCC(c1cccnc1)N1CCc2ccccc21)c1ccc(Cl)cc1 (stereo not drawn)	inactive: 52%
CCc1ccc(CN2CCC(C(=O)N(C)CCc3ccc(OC)c(OC)c3)CC2)cc1	inactive: 81%
CCOc1ccc(N(CC)C(=O)Cn2cnc3sc(C)c(S(=O)(=O)N4CCN(c5ncccn5)CC4)c3c2=O)cc1	inactive: 61%
CC(C)CCNC(=O)c1ccc2nc(Cc3ccccc3)oc2c1	inactive: 55%
Cc1cc(NS(=O)(=O)c2ccc(NC(=O)COc3cc(C)c(Br)cc3C(C)C)cc2)no1	active: 13%
COc1ccc(-c2cc(C(F)(F)F)nc(SCC(=O)NC(C)c3ccccc3)n2)cc1 (stereo not drawn)	inactive: 60%
Cc1ccc(CCNC(=O)c2ccc3c(c2)N(Cc2cccc(F)c2)C(=O)c2ccccc2S3)cc1	inactive: 94%
